The numbers were not newly measured in publication PMC11006913, which cites them from elsewhere.

This is one part of the list.

What all share (conditions): PBM; conditions not shown; double strand, one strand shown; scale: upbm affinity estimate (log intensity, higher = more binding, comparable within an allelic series)
In series [1] the target is PITX2 L100Q (Homo sapiens) (UniProt Q99697).
In series [2] the target is PITX2 R108H (Homo sapiens) (UniProt Q99697).
The target of series [3] is PITX2 R130W (Homo sapiens) (UniProt Q99697).
Series [4] deals with PITX2 T114P (Homo sapiens) (UniProt Q99697).

On to GCTTTGTA [8-mer GCTTTGTA], for which the binding signal in series [1] was 9.45; in series [2], 8.62; in series [3] it was 8.52; in series [4], 8.63.

In the case of AACCGGGC [8-mer AACCGGGC], the binding signal in series [1] was 8.4; in series [2], 8.1; in series [3], 7.97; in series [4], 8.18.

Regarding ACGGATTA [8-mer ACGGATTA], the binding signal in series [1] was 11.4; in series [2], 9.62; in series [3], 8.74; in series [4] it was 9.97.

Consider GAGAGCCC [8-mer GAGAGCCC], for which the binding signal was 8.2 in series [1], 7.94 in series [2], 7.92 in series [3] and 8.03 in series [4].

As to CCGGTCTC [8-mer CCGGTCTC], the binding signal was 8.06 in series [1], 8.05 in series [2], 7.99 in series [3] and 8.06 in series [4].

Regarding GGCGCCAC [8-mer GGCGCCAC], the binding signal in series [1] is 8.31; in series [2], 8.01; in series [3] it was 7.95; in series [4] it was 8.07.

Turning to CGCATGCG [8-mer CGCATGCG], the binding signal in series [1] is 8.27; in series [2], 8.25; in series [3], 8.12; in series [4], 8.29.

On to AGGCCGCC [8-mer AGGCCGCC], for which the binding signal in series [1] is 7.99; in series [2], 7.99; in series [3] it was 7.93; in series [4] it was 7.96.

With GAGGATCA [8-mer GAGGATCA], the binding signal was 10 in series [1], 8.59 in series [2], 8.33 in series [3] and 8.76 in series [4].

In the case of GAGATTAA [8-mer GAGATTAA], the binding signal in series [1] was 11.3; in series [2], 9.58; in series [3] it was 8.74; in series [4], 10.

With ACGATTAC [8-mer ACGATTAC], the binding signal in series [1] was 9.8; in series [2], 8.79; in series [3], 8.6; in series [4], 8.75.

On to GCGCCGCC [8-mer GCGCCGCC], for which the binding signal in series [1] is 8.07; in series [2] it was 7.93; in series [3] it was 7.86; in series [4] it was 7.96.

With CACCGGGC [8-mer CACCGGGC], the binding signal was 7.99 in series [1], 7.86 in series [2], 7.71 in series [3] and 7.97 in series [4].

For the sequence CTTAAGCC [8-mer CTTAAGCC], the binding signal was 10.7 in series [1], 8.91 in series [2], 8.27 in series [3] and 9.27 in series [4].

As for CGGCTTAA [8-mer CGGCTTAA], the binding signal in series [1] was 10.7; in series [2], 8.93; in series [3] it was 8.38; in series [4] it was 9.21.

As to CGTAATCC [8-mer CGTAATCC], the binding signal in series [1] was 11.1; in series [2], 9.3; in series [3], 8.43; in series [4], 9.74.
